Source: patent publication US20230414781A1 (BLISS BIOPHARMACEUTICAL HANGZHOU, published 2023)

T1: B7-H3 on B7-H3-expressing cancer cells (UniProt Q5ZPR3 29-534, limits assumed)
T1 construct: whole, on cells; Endogenous expression on tumour cell lines; also called B7-H3 expressing cells; CD276
T1 sequence (looked up): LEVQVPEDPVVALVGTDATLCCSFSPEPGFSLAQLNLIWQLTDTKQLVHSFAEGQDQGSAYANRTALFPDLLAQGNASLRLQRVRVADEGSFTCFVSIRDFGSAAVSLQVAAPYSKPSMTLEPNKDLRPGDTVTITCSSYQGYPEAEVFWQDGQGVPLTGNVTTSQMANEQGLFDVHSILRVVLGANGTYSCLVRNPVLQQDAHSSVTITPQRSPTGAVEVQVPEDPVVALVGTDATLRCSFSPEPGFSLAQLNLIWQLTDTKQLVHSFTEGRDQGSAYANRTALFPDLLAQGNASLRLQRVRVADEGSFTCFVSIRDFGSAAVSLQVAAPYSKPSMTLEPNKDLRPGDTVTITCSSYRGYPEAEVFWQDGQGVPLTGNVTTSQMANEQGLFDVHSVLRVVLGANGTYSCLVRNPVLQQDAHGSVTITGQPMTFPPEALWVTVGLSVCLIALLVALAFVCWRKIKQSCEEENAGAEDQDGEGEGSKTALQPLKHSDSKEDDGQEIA


Columns and labels:
[1] = molecular target: T1, B7-H3 on B7-H3-expressing cancer cells; assay: FACS on U87 (glioma) cells
Method: (§1) Screening for B7-H3-expressing cells were performed using FACS with 27B4H4L3 antibody and MFI of 27B4H4L3 to those cells shown in Table 2. FACS assay was also used to exam and compare the binding capabilities of the 27B4H4L3 antibody, BH73 antibody, 27B4H4L3-MMAE and BH73-Eribulin to B7-H3-expressing cells. To perform the assay, target cells and samples were incubated at 4° C. for 1 h. After wash, samples and secondary antibody (goat pAb to human IgG (FITC) (Abcam, ab97224)) were incubated. FACS was performed on […] (BD, Accuri C6 Plus) and mean fluorescence intensity (MFI) was reported. Three cell lines (U87MG, BT-474 and HT-29) representing B7-H3 high- and low-expressing cells were used to compare binding capacities of different antibody constructs and ADCs.

[2] = molecular target: T1, B7-H3 on B7-H3-expressing cancer cells; assay: FACS on HT-29 (colon) cells
Method: as §1

[3] = molecular target: T1, B7-H3 on B7-H3-expressing cancer cells; assay: FACS on BT-474 (breast) cells
Method: as §1

Row | MFI [1] [MFI] | MFI [2] [MFI] | MFI [3] [MFI] | Binder
1 | 333000 | 71500 | 133000 | BH73 antibody (antibody, also called clone BH73) heavy: EVQLVQSGAEVKKPGESLKISCKASGYTFTTYWIGWVRQMPGKGLEWMGIIYPGDGGSRYSPSFQGQVTISADKSISTAYLQWSSLKASDTAMYYCARGGNYISFPMYYWGQGTLVTVSSASTKGPSVFPLAPCSRSTSESTAALGCLVKDYFPEPVTVSWNSGALTSGVHTFPAVLQSSGLYSLSSVVTVPSSNFGTQTYTCNVDHKPSNTKVDKTVEPPKSDCKTKTVE[human IgG1 Fc not printed] light: EIVMTQSPATLSVSPGERATLSCKASRGVSTALAWYQQKPGQAPRLLIYWASTRATGIPARFSGSGSGTEFTLTISSLQSEDFAVYYCQQHYDTPYTFGQGTKLEIKRTVAAPSVFIFPPSDEQLKSGTASVVCLLNNFYPREAKVQWKVDNALQSGNSQESVTEQDSKDSTYSLSSTLTLSKADYEKHKVYACEVTHQGLSSPVTKSFNRGEC
2 | 321000 | 71300 | – | BH73-MMAE (antibody, DAR 2, MC-Val-Cit-PAB-MMAE drug-linker on cysteines of partially reduced inter-chain disulfide bonds; predominantly DAR2, minor DAR0 and DAR4; positions not given, predominantly DAR2; also called ADC made of BH73 antibody) heavy: EVQLVQSGAEVKKPGESLKISCKASGYTFTTYWIGWVRQMPGKGLEWMGIIYPGDGGSRYSPSFQGQVTISADKSISTAYLQWSSLKASDTAMYYCARGGNYISFPMYYWGQGTLVTVSSASTKGPSVFPLAPCSRSTSESTAALGCLVKDYFPEPVTVSWNSGALTSGVHTFPAVLQSSGLYSLSSVVTVPSSNFGTQTYTCNVDHKPSNTKVDKTVEPPKSDCKTKTVE[human IgG1 Fc not printed] light: EIVMTQSPATLSVSPGERATLSCKASRGVSTALAWYQQKPGQAPRLLIYWASTRATGIPARFSGSGSGTEFTLTISSLQSEDFAVYYCQQHYDTPYTFGQGTKLEIKRTVAAPSVFIFPPSDEQLKSGTASVVCLLNNFYPREAKVQWKVDNALQSGNSQESVTEQDSKDSTYSLSSTLTLSKADYEKHKVYACEVTHQGLSSPVTKSFNRGEC
